Source: the supplement of paper PMC11880418
Counter-ions that a name gives are not always drawn. The list shows a part of the results. The data scatter; read single values as rough.

Columns and labels:
Assay in all cases: ALDHbr (CSC) cell proportion score relative to DMSO vehicle (ratio to DMSO); breast (SUM159) / gastric (MKN45) / pancreatic (PANC1) / colon cancer lines; ALDHbr cells have high ALDH activity and are rich in cancer stem cells (CSC); higher = more CSC (ALDHbr) cells remaining
Details in all cases: 10 µM; 72 h
MKN45 = test system: MKN45
PANC1 = test system: PANC1
SUM159 = test system: SUM159
T84 = test system: T84
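Further: High-content imaging of ALDEFLUOR-stained cells with Hoechst-labelled nuclei in 384-well plates, triplicate wells, scored as Z-score against 0.1% DMSO vehicle, negative meaning fewer ALDHbr cells.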

| Compound | ALDHbr (MKN45) | ALDHbr (PANC1) | ALDHbr (SUM159) | ALDHbr (T84) |
| --- | --- | --- | --- | --- |
| CCc1cccc(CC)c1NC(=O)CN(CC(=O)O)CC(=O)O [Etifenin] | 0.932 | 0.945 | 1.05 | 1.03 |
| O=C1CN(/N=C/c2ccc([N+](=O)[O-])o2)C(=O)N1 [Nitrofurantoin] | 0.861 | 0.825 | 0.873 | 0.749 |
| N[C@@H](C(=O)N[C@@H]1C(=O)N2C(C(=O)O)=C(Cl)CS[C@H]12)c1ccccc1 [Cefaclor hydrate] | 1.22 | 0.986 | 1.07 | 0.973 |
| CC(=O)OCC(CCn1cnc2cnc(N)nc21)COC(C)=O [Famciclovir] | 1.29 | 0.987 | 0.844 | 1.04 |
| CC(=O)Oc1ccccc1C(=O)Oc1ccccc1C(=O)O [Acetylsalicylsalicylic acid] | 1.01 | 0.883 | 0.808 | 0.902 |
| NCCCC[C@H](N[C@@H](CCc1ccccc1)C(=O)O)C(=O)N1CCC[C@H]1C(=O)O [Lisinopril] | 1 | 0.83 | 1.02 | 1.08 |
| O=P(O)(O)C(O)(Cn1ccnc1)P(=O)(O)O [Zoledronic acid hydrate] | 0.921 | 0.97 | 0.909 | 1.05 |
| CC(=O)Oc1cc(C(C)C)c(OCCN(C)C)cc1C [Moxisylyte hydrochoride] | 0.867 | 1.11 | 0.934 | 0.987 |
| CNCCCN1c2ccccc2CCc2ccccc21 [Desipramine hydrochloride] | 0.984 | 0.968 | 0.759 | 0.674 |
| CC(=O)NC[C@H]1CN(c2ccc(N3CCOCC3)c(F)c2)C(=O)O1 [Linezolid] | 0.954 | 0.631 | 0.929 | 0.994 |
| COc1cc(C(=O)OCCCN2CCCN(CCCOC(=O)c3cc(OC)c(OC)c(OC)c3)CC2)cc(OC)c1OC [Dilazep dihydrochloride] | 1.58 | 0.634 | 0.368 | 0.743 |
| CC[N+](C)(C)c1cccc(O)c1 [Edrophonium chloride] | 1.02 | 0.9 | 0.921 | 1.24 |
| O=C(O)CCCC[C@@H]1SC[C@@H]2NC(=O)N[C@@H]21 [Biotin] | 0.978 | 0.911 | 1.07 | 0.946 |
| CCOc1ccccc1OC(c1ccccc1)C1CNCCO1 (centres undefined) [Reboxetine mesylate] | 1.11 | 0.883 | 1.25 | 0.894 |
| C=CC1=C(C(=O)O)N2C(=O)[C@@H](NC(=O)/C(=N\O)c3csc(N)n3)[C@H]2SC1 [Cefdinir] | 1.04 | 0.963 | 0.911 | 0.92 |
| Cc1ccccc1OCC(O)CO (centres undefined) [Mephenesin] | 1.09 | 0.828 | 0.77 | 1.05 |
| CC[C@@H]([C@H](C)O)n1ncn(-c2ccc(N3CCN(c4ccc(OC[C@@H]5CO[C@@](Cn6cncn6)(c6ccc(F)cc6F)C5)cc4)CC3)cc2)c1=O [Posaconazole] | 0.11 | 0.989 | 0.482 | 0.659 |
| NS(=O)(=O)Cc1noc2ccccc12 [Zonisamide] | 1.07 | 0.875 | 0.935 | 1.01 |
| C#CCN(C)CCCOc1ccc(Cl)cc1Cl [Clorgyline hydrochloride] | 0.544 | 0.908 | 1.09 | 0.887 |

| Compound | ALDHbr (MKN45) | ALDHbr (PANC1) | ALDHbr (SUM159) | ALDHbr (T84) |
| --- | --- | --- | --- | --- |
| NCCc1c[nH]cn1 [Histamine dihydrochloride] | 1.01 | 1.02 | 1.3 | 0.879 |
| CN1CCC(=C2c3ccccc3CCc3cccnc32)CC1 [Azatadine maleate] | 1.44 | 1.04 | 0.781 | 0.93 |
| CCCCCCC[N+](CC)(CC)CCCCc1ccc(Cl)cc1 [Clofilium tosylate] | 0.449 | 0.794 | 0.706 | 0.44 |
| C[C@]12C=CC(=O)C=C1CC[C@@H]1[C@@H]2[C@@H](O)C[C@@]2(C)[C@H]1CC[C@]2(O)C(=O)CO [Prednisolone] | 1.02 | 0.605 | 1.16 | 0.885 |
| CN(C)CCN(Cc1cccs1)c1ccccn1 [Methapyrilene hydrochloride] | 1.1 | 0.926 | 1.03 | 1.02 |
| Clc1ccc(C(Cn2ccnc2)OCc2csc3c(Cl)cccc23)c(Cl)c1 (centres undefined) [Sertaconazole nitrate] | 1.28 | 1.71 | 1.03 | 0.565 |
| OCCN1CCN(CCCN2c3ccccc3Sc3ccc(C(F)(F)F)cc32)CC1 [Fluphenazine dihydrochloride] | 1.07 | 1.07 | 0.693 | 0.056 |
| CCC1(c2ccccc2)C(=O)NCNC1=O [Primidone] | 0.885 | 0.874 | 1.1 | 1.09 |
| O=C(OCCOCCO)c1ccccc1Nc1cccc(C(F)(F)F)c1 [Etofenamate] | 0.701 | 0.804 | 1.1 | 0.909 |
| COc1ccnc(C[S+]([O-])c2nc3cc(OC(F)F)ccc3[nH]2)c1OC (centres undefined) [Pantoprazole sodium] | 0.958 | 0.827 | 1.06 | 0.958 |
| CC(C)OC(=O)C(C)(C)Oc1ccc(C(=O)c2ccc(Cl)cc2)cc1 [Fenofibrate] | 0.863 | 0.819 | 0.944 | 1.02 |
| CN1CCC(=C2c3ccccc3CC(=O)c3sccc32)CC1 [Ketotifen fumarate] | 1.3 | 1.13 | 0.777 | 0.886 |
| O=C(Nc1cccc2c(=O)cc(-c3nnn[nH]3)oc12)c1ccc(OCCCCc2ccccc2)cc1 [Pranlukast] | 1.13 | 0.681 | 1.03 | 1.07 |
| CCCCCCCN(CC)CCCC(O)c1ccc(NS(C)(=O)=O)cc1 (centres undefined) [Ibutilide fumarate] | 0.953 | 0.861 | 1.25 | 0.774 |
| Cc1cccc(C)c1NC(=O)C(C)N (centres undefined) [Tocainide hydrochloride] | 1.09 | 0.979 | 0.833 | 0.979 |
| COc1cc(-c2ccc(N=Nc3ccc4c(S(=O)(=O)O)cc(S(=O)(=O)O)c(N)c4c3O)c(OC)c2)ccc1N=Nc1ccc2c(S(=O)(=O)O)cc(S(=O)(=O)O)c(N)c2c1O [Chicago sky blue 6B] | 1.02 | 0.736 | 0.798 | 0.848 |
| C[N+](C)(C)CCCCCC[N+](C)(C)C [Hexamethonium dibromide dihydrate] | 0.925 | 0.937 | 1.11 | 0.961 |
| CN(C)c1ccc(O)c2c1C[C@H]1C[C@H]3[C@H](N(C)C)C(=O)C(C(N)=O)=C(O)[C@@]3(O)C(=O)C1=C2O [Minocycline hydrochloride] | 0.433 | 0.508 | 0.372 | 0.967 |
| CC(NCCC(c1ccccc1)c1ccccc1)c1ccccc1 (centres undefined) [Fendiline hydrochloride] | 1.33 | 1.04 | 0.442 | 0.38 |

| Compound | ALDHbr (MKN45) | ALDHbr (PANC1) | ALDHbr (SUM159) | ALDHbr (T84) |
| --- | --- | --- | --- | --- |
| CC(=O)O[C@]1(C(C)=O)CC[C@H]2[C@@H]3C=C(C)C4=CC(=O)CC[C@@H]4[C@H]3CC[C@@]21C [Nomegestrol acetate] | 1.1 | 0.684 | 0.623 | 0.902 |
| CC(C)(C#N)c1cc(Cn2cncn2)cc(C(C)(C)C#N)c1 [Anastrozole] | 1.08 | 0.989 | 1.34 | 1.09 |
| CC(C)(C)NC[C@@H](O)COc1cccc2c1CCCC2=O [(+) -Levobunolol hydrochloride] | 1.05 | 0.792 | 0.999 | 1.08 |
| C[C@H](N)[C@H](O)c1cccc(O)c1 [Metaraminol bitartrate] | 0.927 | 0.752 | 1.91 | 0.968 |
| CC(C)Nc1cccnc1N1CCN(C(=O)c2cc3cc(NS(C)(=O)=O)ccc3[nH]2)CC1 [Delavirdine] | 0.768 | 0.594 | 0.48 | 0.642 |
| O=C1c2c(O)cccc2Cc2cccc(O)c21 [Anthralin] | 1.4 | 0.988 | 1.96 | 0.726 |
| Cc1cc(C(C)(C)C)cc(C)c1CC1=NCCN1 [Xylometazoline hydrochloride] | 1.01 | 0.882 | 0.87 | 1.02 |
| c1ccc(-c2ccc(C(c3ccccc3)n3ccnc3)cc2)cc1 (centres undefined) [Bifonazole] | 0.672 | 1.34 | 1.48 | 0.946 |
| O=c1[nH]c(=O)n([C@H]2C[C@H](O)[C@@H](CO)O2)cc1I [Idoxuridine] | 1.45 | 1.36 | 1.47 | 0.6 |
| COc1ccc(C(=O)NCc2cccnc2)cc1C(=O)NCc1cccnc1 [Picotamide monohydrate] | 0.972 | 0.834 | 0.899 | 0.917 |
| COC(=O)Nc1nc2cc([S+]([O-])c3ccccc3)ccc2[nH]1 (centres undefined) [Oxfendazol] | 1.55 | 1.15 | 0.988 | 0.781 |
| CCN(CC)CCNC(=O)c1ccc(N)cc1 [Procainamide hydrochloride] | 1.12 | 0.913 | 1.11 | 0.962 |
| C=C(CC)C(=O)c1ccc(OCC(=O)O)c(Cl)c1Cl [Ethacrynic acid] | 1.06 | 0.659 | 0.821 | 0.772 |
| COc1ccc(OC)c(C(O)CNC(=O)CN)c1 (centres undefined) [Midodrine hydrochloride] | 0.739 | 0.748 | 0.883 | 0.774 |
| NC[C@@H]1O[C@H](O[C@H]2[C@@H](O)[C@H](O[C@@H]3[C@@H](O)[C@H](N)C[C@H](N)[C@H]3O[C@H]3O[C@H](CO)[C@@H](O)[C@H](O)[C@H]3N)O[C@@H]2CO)[C@H](N)[C@@H](O)[C@@H]1O [Paromomycin sulfate] | 1.12 | 0.848 | 1.11 | 0.994 |
| CC(C)(O)c1ccccc1CC[C@@H](SCC1(CC(=O)O)CC1)c1cccc(/C=C/c2ccc3ccc(Cl)cc3n2)c1 [Montelukast] | 1.09 | 0.959 | 1.03 | 0.772 |
| C#C[C@]1(O)CC[C@H]2[C@@H]3CCc4cc(O)ccc4[C@H]3CC[C@@]21C [Ethinylestradiol] | 0.986 | 1.08 | 1.19 | 0.839 |
| CC(C)(C)NC(=O)[C@@H]1CN(Cc2cccnc2)CCN1C[C@@H](O)C[C@@H](Cc1ccccc1)C(=O)N[C@H]1c2ccccc2C[C@H]1O [Indinavir sulfate] | 0.861 | 0.799 | 1.01 | 0.825 |
